From patent US10299477B2 (priority 2015, dated 2019)

What was measured:
Assay type in all cases: in vivo
Botrytis cinerea = test: Test Example B: Gray mold on tomato; conditions: Gray mold on tomato
Source text: [Test Example B] Gray Mold on Tomato
Seeds of a test plant (tomato variety: Oogata Fukuju) were planted followed by cultivating until three to five first leaves (true leaves) appeared.

Puccinia recondita = test: Test Example E: Brown rust on wheat; conditions: Brown rust on wheat
Source text: [Test Example E] Brown Rust on Wheat

[1] = tested on: Blumeria graminis f sp. hordei; test: Test Example D: Powdery mildew on barley; conditions: Powdery mildew on barley
Source text: [Test Example D] Powdery Mildew on Barley
After the sprayed dilutions were dried, conidia of Blumeria graminis f sp. hordei were inoculated to the plants by shaking off.

Alternaia brassicicola = test: Test Example C: Alternaria sooty spot on cabbage; conditions: Alternaria sooty spot on cabbage
Source text: [Test Example C] Alternaria Sooty Spot on Cabbage
Seeds of a test plant (cabbage variety: Shikidori) were planted followed by cultivating until the cotyledons extended.

Structure (SMILES)	Test B control value (Botrytis cinerea)	Test E control value (Puccinia recondita)	Test D control value [1]	Test C control value (Alternaia brassicicola)
CCN1C(=O)CCC(c2ccc(F)cc2Cl)=C1c1c(F)cccc1F [Compound 58]	H (H shows more than 50% of control values)	H (H shows more than 50% of control values)	H (H shows more than 50% of control values)	H (H shows more than 50% of control values)
CCn1c(-c2c(F)cccc2F)c(-c2ccc(F)cc2Cl)ccc1=O [Compound 59]	H (H shows more than 50% of control values)	H (H shows more than 50% of control values)	H (H shows more than 50% of control values)	H (H shows more than 50% of control values)
COc1ccc(Cl)c(-c2cc(Cl)c(=O)n(C)c2-c2c(F)cccc2F)c1 [Compound 60]	H (H shows more than 50% of control values)	H (H shows more than 50% of control values)	H (H shows more than 50% of control values)	H (H shows more than 50% of control values)
COc1ccc(Cl)c(-c2cc(Br)c(=O)n(C)c2-c2c(F)cccc2F)c1 [Compound 61]	H (H shows more than 50% of control values)	H (H shows more than 50% of control values)	H (H shows more than 50% of control values)	H (H shows more than 50% of control values)
CCn1c(-c2c(F)cccc2F)c(-c2ccc(F)cc2Cl)cc(Cl)c1=O [Compound 62]	H (H shows more than 50% of control values)	H (H shows more than 50% of control values)	H (H shows more than 50% of control values)	H (H shows more than 50% of control values)
CCn1c(-c2c(F)cccc2F)c(-c2ccc(F)cc2Cl)cc(Br)c1=O [Compound 63]	H (H shows more than 50% of control values)	H (H shows more than 50% of control values)	H (H shows more than 50% of control values)	H (H shows more than 50% of control values)
Cn1c(-c2c(F)cccc2F)c(-c2ccc(F)cc2Cl)ccc1=O [Compound 64]	H (H shows more than 50% of control values)	H (H shows more than 50% of control values)	H (H shows more than 50% of control values)	H (H shows more than 50% of control values)
CCn1c(-c2c(F)cccc2F)c(-c2cccc(OC)c2Cl)ccc1=O [Compound 65]	H (H shows more than 50% of control values)	H (H shows more than 50% of control values)	H (H shows more than 50% of control values)	H (H shows more than 50% of control values)
CCn1c(-c2c(F)cccc2F)c(-c2cccc(OC)c2Cl)cc(Br)c1=O [Compound 66]	H (H shows more than 50% of control values)	H (H shows more than 50% of control values)	H (H shows more than 50% of control values)	H (H shows more than 50% of control values)
CCn1c(-c2c(F)cccc2F)c(-c2c(Cl)c(OC)cc(OC)c2Br)ccc1=O [Compound 67]	H (H shows more than 50% of control values)	H (H shows more than 50% of control values)	L (L shows 50% or less of control values)	H (H shows more than 50% of control values)
CCn1c(-c2c(F)cccc2F)c(-c2c(Cl)c(OC)cc(OC)c2Cl)ccc1=O [Compound 68]	H (H shows more than 50% of control values)	H (H shows more than 50% of control values)	H (H shows more than 50% of control values)	H (H shows more than 50% of control values)
CCn1c(-c2c(F)cccc2F)c(-c2c(Cl)c(OC)cc(OC)c2Br)cc(Cl)c1=O [Compound 69]	H (H shows more than 50% of control values)	L (L shows 50% or less of control values)	L (L shows 50% or less of control values)	L (L shows 50% or less of control values)
CCn1c(-c2c(F)cccc2F)c(-c2c(Cl)c(OC)cc(OC)c2Br)cc(Br)c1=O [Compound 70]	H (H shows more than 50% of control values)	L (L shows 50% or less of control values)	L (L shows 50% or less of control values)	L (L shows 50% or less of control values)
CCn1c(-c2c(F)cc(OC)cc2F)c(-c2cc(OC)cc(OC)c2)ccc1=O [Compound 71]	H (H shows more than 50% of control values)	H (H shows more than 50% of control values)	H (H shows more than 50% of control values)	H (H shows more than 50% of control values)
CCn1c(-c2c(F)cc(OC)cc2F)c(-c2cc(OC)cc(OC)c2Br)ccc1=O [Compound 72]	H (H shows more than 50% of control values)	H (H shows more than 50% of control values)	H (H shows more than 50% of control values)	H (H shows more than 50% of control values)
CCn1c(-c2c(F)cc(OC)cc2F)c(-c2cc(OC)cc(OC)c2Cl)ccc1=O [Compound 73]	H (H shows more than 50% of control values)	H (H shows more than 50% of control values)	H (H shows more than 50% of control values)	H (H shows more than 50% of control values)
CCn1c(-c2c(F)cccc2F)c(-c2ccccc2Cl)ccc1=O [Compound 74]	H (H shows more than 50% of control values)	H (H shows more than 50% of control values)	H (H shows more than 50% of control values)	H (H shows more than 50% of control values)
CCn1c(-c2c(F)cccc2F)c(-c2ccccc2Cl)cc(Cl)c1=O [Compound 75]	H (H shows more than 50% of control values)	H (H shows more than 50% of control values)	H (H shows more than 50% of control values)	H (H shows more than 50% of control values)
CCn1c(-c2c(F)cccc2F)c(-c2ccccc2Cl)cc(Br)c1=O [Compound 76]	H (H shows more than 50% of control values)	H (H shows more than 50% of control values)	H (H shows more than 50% of control values)	H (H shows more than 50% of control values)
Cn1c(-c2c(F)cccc2F)c(-c2ccccc2Cl)ccc1=O [Compound 77]	H (H shows more than 50% of control values)	H (H shows more than 50% of control values)	H (H shows more than 50% of control values)	H (H shows more than 50% of control values)
Cn1c(-c2c(F)cccc2F)c(-c2ccccc2Cl)cc(Cl)c1=O [Compound 78]	H (H shows more than 50% of control values)	H (H shows more than 50% of control values)	H (H shows more than 50% of control values)	H (H shows more than 50% of control values)
Cn1c(-c2c(F)cccc2F)c(-c2ccccc2Cl)cc(Br)c1=O [Compound 79]	H (H shows more than 50% of control values)	H (H shows more than 50% of control values)	H (H shows more than 50% of control values)	H (H shows more than 50% of control values)
COc1cc(OC)cc(-c2ccc(=O)n(C)c2-c2c(F)cc(OC)cc2F)c1 [Compound 80]	H (H shows more than 50% of control values)	H (H shows more than 50% of control values)	H (H shows more than 50% of control values)	H (H shows more than 50% of control values)
COc1cc(F)c(-c2c(-c3cc(OC)cc(OC)c3Br)ccc(=O)n2C)c(F)c1 [Compound 81]	H (H shows more than 50% of control values)	H (H shows more than 50% of control values)	H (H shows more than 50% of control values)	H (H shows more than 50% of control values)
COc1cc(F)c(-c2c(-c3cc(OC)cc(OC)c3Cl)ccc(=O)n2C)c(F)c1 [Compound 82]	H (H shows more than 50% of control values)	H (H shows more than 50% of control values)	H (H shows more than 50% of control values)	H (H shows more than 50% of control values)
CCn1c(-c2c(F)cccc2F)c(-c2c(Cl)c(OC)cc(OC)c2Cl)cc(Br)c1=O [Compound 83]	H (H shows more than 50% of control values)	H (H shows more than 50% of control values)	L (L shows 50% or less of control values)	L (L shows 50% or less of control values)
CCn1c(-c2c(F)cccc2F)c(-c2c(Cl)c(OC)cc(OC)c2Cl)cc(Cl)c1=O [Compound 84]	H (H shows more than 50% of control values)	L (L shows 50% or less of control values)	L (L shows 50% or less of control values)	L (L shows 50% or less of control values)
